Molecules are shown by their SMILES.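 Five compound concentrations were applied to cells in 96-well plates for 48 hours; endpoints were derived by simple linear interpolation of the resulting dose-response curve. GI50 = concentration required for 50% inhibition of growth. TGI is the concentration that stops growth completely.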

This test concerns NCI-H322M lung. The test can be described thus: NCI anticancer screen, dose series, 48 h.
With `O=C(Nc1ccc(F)cc1)c1c(NC(=O)C(F)(F)F)sc2c1CCCCC2`, the GI50 is 2.03 µM and the TGI is 7.87 µM.

`CCN(CC)CCCOC(=O)/C=C/c1c(C)[nH]c(=O)[nH]c1=O` yielded a TGI of over 625 µM.

As to `COc1c(C(=O)O)oc2c(OC)cccc12`, the TGI is over 100 µM.

Regarding `O=S(=O)(NCC1CCC(CNc2ccc(Cl)cc2)CC1)c1ccc(-c2ccccc2)cc1` (configuration not stated), the GI50 is over 50 µM and the TGI is over 50 µM.

`COc1ccc(/C=C/c2nc(NCCCN(C)C)c3ccccc3n2)cc1`: the GI50 was 5.98 µM and the TGI amounted to 20.8 µM.

In the case of `CO/C1=C\C(C)=C\C(C)C(O)C(C)C/C(C)=C/C=C/C(OC)C(C(C)C(O)C(C)C2(O)CC(O)C(C)C(C(C)C)O2)OC1=O` (configuration not stated), the GI50 was 3.37 µM and the TGI worked out at 23.9 µM.

In the case of `O=C(NCCCCCCNC(=O)n1cc(F)c(=O)[nH]c1=O)NCCCOCCOCCCNC(=O)C(O)C(O)C(O)C(O)CO` (configuration not stated), the TGI was over 2.5 µM.

In turn, `COc1cc2c(c(OC)c1OC)-c1ccc(SC)c(=O)cc1[C@@H](OC(C)=O)CC2` displayed a TGI of over 100 µM.

In turn, `CCCCNN` yielded a TGI of over 100 µM.

In the case of `COC(=O)C1=C(C)NC2(O)C=CC(=O)C3C(=O)N(c4ccccc4)C(=O)C132` (configuration not stated), the TGI was over 100 µM.

`CC(=O)NCCC1CN(C(=O)/C=C\C#C[Si](C)(C)C)c2ccccc21` (configuration not stated) had a TGI of over 100 µM.

For the compound `N#Cc1cnc2cc(OC[C@@H](O)CO)c(NC(=O)CC3CSSC3)cc2c1Nc1ccc(OCc2cccc(F)c2)c(Cl)c1`, the GI50 is 0.468 µM and the TGI turned out to be 1.36 µM.

`Cn1c(=O)c(Oc2ccccc2F)cc2cnc(NC3CCOCC3)nc21`: the GI50 is over 25 µM and the TGI is over 25 µM.

Regarding `COc1cc(/C=C2\CC3C4CC=C5C[C@@H](OC(C)=O)CC[C@]5(C)C4CC[C@]3(C)C2=O)ccc1OCCCn1ccnc1` (some centres not stated), the GI50 was 8.75 µM and the TGI stood at 22.7 µM.

Regarding `CCCCCCCCCCCCCCCCSCC(COC)COP(=O)([O-])OCC[N+](C)(C)C` (configuration not stated), the TGI was determined as 29.1 µM.

`C=C1C(=O)OC2(C)C3CCC(C3)C12` (configuration not stated) registered a TGI of over 100 µM.

As to `CC1=C[C@H]2c3c(c(O)c(O)c4oc5ccccc5c(=O)c34)[C@H](c3cc(O)c(O)c4oc5ccccc5c(=O)c34)[C@H]2C(C)(C)C1`, the GI50 is 2.07 µM and the TGI was 13.6 µM.

`COc1ccccc1-c1cc(=O)c2ccccc2[nH]1` displayed a TGI of over 100 µM.

On to `O=C1CSc2nc3ccccc3n2/C=N\N1`, for which the TGI is over 100 µM.

Compound `CCOC(=O)c1cc(C(=O)c2ccccc2)n2nc(-c3ccc(Cl)cc3)ccc12` showed a TGI of 46.7 µM.

For the compound `CC/C=C\C[C@H](O)C/C=C1/C(=O)C=C[C@@H]1C/C=C\CCCC(=O)N(C)C`, the GI50 was 1.72 µM and the TGI was found to be 5.78 µM.

The compound `Cc1cc(CNC(=O)OCc2ccccc2)c(C)c2c1Oc1ccccc1O2` had a TGI of over 100 µM.

In turn, `Cc1c2c(cc3c1[nH]c1ccccc13)C=NCC2` showed a TGI of 34.4 µM.

As for `COC(=O)c1sc(C(=O)OC)c2c1CSC2`, the TGI is over 100 µM.

As for `NC1CCN(c2nc(Nc3cccc(C(F)(F)F)c3)c3c(=O)[nH]ccc3n2)CC1`, the GI50 was 1.19 µM and the TGI turned out to be 3.09 µM.

For the compound `CN(C)N1C(=O)c2ccccc2NC1c1ccccc1` (configuration not stated), the TGI is over 100 µM.

`C=CC1ON(Cc2ccccc2)CCc2cc(OC)c(OC)cc21` (configuration not stated) came in with a TGI of over 100 µM.

The compound `FC(F)(F)c1ccccc1N1CCN(c2nc(-c3cccs3)nc3ccc(Br)cc23)CC1` yielded a TGI of over 100 µM.

Compound `CN1c2ccccc2N(C)C2C1N(C)c1ccccc1N2C` (configuration not stated) registered a TGI of over 100 µM.

As to `C1CSCCCSCCSCCCSC1`, the TGI was over 100 µM.

The compound `COc1cccc(C(=O)N2CCc3ccccc32)c1OC` yielded a TGI of over 100 µM.

Take `Cc1nc2c(n1C(C)(C)C)C(=O)c1ccccc1C2=O`: the TGI is over 100 µM.

As to `Cc1cc(O)c2c(c1O)C(=O)C13C(=C2O)C(=O)C2C(O)C1C1C(O)C3C(=O)C3=C(O)c4c(O)cc(C)c(O)c4C(=O)C321` (configuration not stated), the TGI came out at 1.88 µM.

Turning to `ClC(Cl)(Cl)C1=N[C@H]2[C@H](Br)[C@@H]3O[C@@H](c4ccccc4)[C@H](c4ccccc4)O[C@@H]3[C@H]2O1`, the TGI turned out to be 39.1 µM.

As to `COc1cc2cc(C(=O)N3C[C@@H](CCl)c4c3cc(N)c3ccccc43)[nH]c2c(OC)c1OC`, the TGI is over 100 µM.

As for `COC(=O)C(CCc1ccccc1I)C1=CCC2(CC1)OCCO2` (configuration not stated), the TGI was over 100 µM.

On to `Cc1c(C(=O)c2ccccc2C(=O)O)c2ccccc2n1C`, for which the TGI is over 100 µM.

Compound `COC1=C(N=[N+]=[N-])C(=O)c2ncccc2C1=O` displayed a TGI of 31.8 µM.

`Cc1ccc(OCC2OC(n3cnc4c(N(C)C)nc(Br)nc43)CC2Oc2ccc(C)cc2)cc1` (configuration not stated) gave a TGI of over 100 µM.

Turning to `CN(CN1C(=O)C2Cc3ccccc3CN2C1=O)c1ccccn1` (configuration not stated), the TGI is over 100 µM.

As for `COc1cc(OC)c2c(O)c3c(cc2c1)CC(C)(C)CC3=O`, the TGI is over 100 µM.

Compound `O=C1/C(=C\c2cccc(Oc3ccccc3)c2)S(=O)(=O)C(c2ccccc2)N1c1ccccc1Cl` (configuration not stated) showed a TGI of over 100 µM.

Consider `COc1ccccc1NC(=O)n1nc(N)c2ccccc21`, for which the GI50 is over 100 µM and the TGI is over 100 µM.

With `NC(=O)c1cc(Br)cc(C2CCCCC2)c1O`, the GI50 was 14.5 µM and the TGI turned out to be 28.7 µM.

For the compound `COc1ccccc1C1SCC(=O)N1c1ccc(-c2ccc(-n3c(-c4ccccc4)nc4ccccc4c3=O)cc2)cc1` (configuration not stated), the TGI is over 100 µM.

The compound `Cc1sc2nc(-c3cc([N+](=O)[O-])c(Cl)cc3Cl)c(/C=N/N=C(N)N)n2c1C` came in with a TGI of 34.9 µM.

In the case of `O=C(Nc1ccc(Cl)cc1)c1ccc(NC2=C(Cl)C(=O)N(Cc3ccccc3)C2=O)cc1`, the GI50 was 20.8 µM and the TGI was found to be 96.3 µM.

As to `CC1(C)OC(=O)C=C([O-])O1.CC1(C)OC(=O)C=C([O-])O1.O=S(=O)([O-])c1ccc([O-])c2ncccc12.O=S(=O)([O-])c1ccc([O-])c2ncccc12.[Ti+4]`, the GI50 is over 100 µM and the TGI is over 100 µM.

Consider `O=C1CC(=O)c2c(O)cc(O)c(c2O)-c2c(ccc(O)c2O)C2=CC(=O)c3c(O)cc(O)c(c3O2)-c2c1ccc(O)c2O` (tested in a mixture with another compound), for which the TGI is over 50 µM.

Consider `Cn1ncc2c(N)nc(N3CCCCC3)nc21`, for which the GI50 was 18.5 µM and the TGI amounted to 59.7 µM.

The compound `O=C(N=C1SCCN1C(=O)C(C(F)(F)F)C(F)(F)F)C(C(F)(F)F)C(F)(F)F` had a TGI of over 100 µM.

Compound `c1ccc(C2=Nc3nc4ccccc4n3C(c3ccccc3)C2)cc1` (configuration not stated) showed a TGI of over 100 µM.

As to `O=C(NCCCNc1cc(-c2cn(-c3ccccc3)nc2-c2cccc(O)c2)ccn1)c1ccccc1`, the GI50 is 4.45 µM and the TGI amounted to 72.6 µM.

In turn, `CCCCCC(=O)c1ccc2[nH]c3c(C)cc([N+](=O)[O-])c(C)c3c2c1` came in with a TGI of over 100 µM.

In the case of `O=c1[nH]c(=O)n(C2OC(CO)C(O)C2O)c2c1CCCC2` (configuration not stated), the TGI is over 100 µM.

On to `O=C(/C=C/c1ccsc1)c1ccco1`, for which the TGI stood at 35.1 µM.

Consider `C/C(=N\NS(=O)(=O)c1ccccc1)c1ccccc1`, for which the TGI was over 100 µM.

With `ClC(Cl)c1nc(-c2cccnc2)n2nc(-c3ccccc3)cc2n1`, the GI50 is 1.53 µM and the TGI came to 4.92 µM.

`NC(=O)c1nnc2cc(F)ccc2c1N` registered a TGI of over 100 µM.

`COc1cccc(NC(=O)CC(=O)N2N=C(N(CCC#N)c3ccccc3C)CC2c2ccccc2)c1` (configuration not stated): the TGI was over 100 µM.

Values taken from PubChem BioAssay (NCI).
